According to the supplement of paper PMC3334620:
Over roughly 33,000 sequences, “E-score (-0.5 to 0.5)” has its median near -0.01; the highest 2% begin near 0.26. The list shows a part of the results.

These sequences were tested against Ste12 (UniProt P13574) (assay: PBM E-score (8-mer binding enrichment) (E-score (-0.5 to 0.5)); higher = stronger / more preferred TF binding; most listed sequences are background and not binding sites). Settings: protein concentration: 200 nM; construct: GST-DNA-binding domain.
Procedure, shortened: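 Full-length yeast transcription factors or their DNA-binding domains, GST-tagged and expressed with PURExpress, were applied at about 100-200 nM to universal all-10-mer Agilent arrays. These arrays had been made double-stranded by primer extension on fresh or once-stripped slides. Detection used fluorescent anti-GST, normalisation used masliner, and E-scores for ungapped eight-base words pooled with reverse complements came from the Universal PBM Analysis Suite.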

Row | Sequence | PBM E-score
1 | CGTACTGA | -0.0801
2 | CGGACTGA | -0.109
3 | GTAACACA | 0.22
4 | AACAGTAG | 0.0927
5 | CGCCCCTA | 0.214
6 | ATAACTGC | 0.0455
7 | AGCAAGTC | -0.142
8 | ACGGAGCT | -0.2
9 | ATTTTCTG | 0.0989
10 | AAGCCCCA | -0.237
11 | ATCTATCG | -0.158
12 | ACACCCCG | -0.105
13 | GCCTAGGA | -0.28
14 | CAATTGAG | 0.0566
15 | CTGCTTGC | -0.0733
16 | ACTTAGCT | -0.201
17 | ATCTGTAA | 0.0995
18 | AACTAACG | 0.0335
19 | ACCTGTCT | -0.129
20 | ACAGCACA | 0.0988
21 | CGGCTTTA | 0.119
22 | GCCCCGCA | -0.112
23 | GCATCCGA | -0.0885
24 | AGTCGACC | -0.188
25 | TACGGCCA | -0.0301

Row | Sequence | PBM E-score
26 | GCGAGAAC | -0.0267
27 | CCCGAAGA | -0.0126
28 | CCAAACGA | 0.0156
29 | ATGGGCAG | -0.0812
30 | ACAAGGGA | -0.157
31 | AGTTGTAG | 0.055
32 | GCTGCGCA | -0.229
33 | ACGCTCGA | 0.0566
34 | CCGTATTC | 0.0233
35 | AGCTGACA | -0.0833
36 | AGCGGCCT | -0.213
37 | CCTTTGCA | -0.202
38 | GCTAAGTA | 0.0653
39 | AAGTCCGG | -0.155
40 | GATTCTAA | 0.0387
41 | AAATCGGA | 0.0787
42 | GTCATTGA | -0.0606
43 | ACCTATTC | -0.152
44 | AAAGGCTA | -0.00034
45 | ACCGCACA | -0.166
46 | ACGTCGGC | -0.172
47 | CCTCCAAA | 0.104
48 | GCGTCACA | 0.1
49 | CACACCGC | 0.0397
50 | AACATAGG | 0.0615

Row | Sequence | PBM E-score
51 | TAAACTGA | 0.218
52 | AGTAAGAG | -0.0537
53 | GCACCCCA | 0.149
54 | ATGAATTG | 0.0843
55 | GTCAGCGA | -0.14
56 | AATCAGGG | -0.264
57 | ACGGGACG | -0.131
58 | CCCACCAG | -0.0399
59 | ATGAGTCA | -0.0404
60 | ATATTCAG | 0.103
61 | AAAATACT | 0.235
62 | CAAGTCCG | -0.204
63 | AAATATGT | 0.226
64 | CCCGTAGA | -0.397
65 | ACCACGGT | -0.337
66 | ACAATCGC | 0.0816
67 | AGGTCTAA | -0.0263
68 | ACATGCCC | -0.251
69 | AGGCGAAC | -0.083
70 | GAGAAGCA | 0.00487
71 | CTAATAAA | 0.145
72 | AACTAAGG | -0.0428
73 | CGACCCTC | -0.109
74 | GGCTTTGA | -0.146
75 | AAGGCGTG | -0.145

Row | Sequence | PBM E-score
76 | GACGCCCA | 0.219
77 | ACATCCCA | -0.0882
78 | CCGTTAGG | -0.156
79 | AGGCCAAT | -0.14
80 | AGCTAACA | 0.0564
81 | CAATAGAC | -0.0408
82 | ATCCCTAC | 0.00727
83 | GAGAGGGA | -0.239
84 | AATTATGG | -0.0149
85 | CCAGCCCC | -0.0634
86 | TGGTCAAA | 0.0917
87 | GTGTTGGA | -0.0728
88 | CACCTTAA | 0.0107
89 | CGGGTCAA | 0.0841
90 | CATCGTAC | -0.0407
91 | GTCGACAC | 0.0215
92 | TACGTAAA | 0.0382
93 | TGTGAACA | 0.146
94 | AGATCAGC | -0.0592
95 | CCATTACC | 0.00961
96 | CGAAAATA | 0.124
97 | GAGAGTTA | 0.031
98 | ATCTCTTC | 0.209
99 | ACTCGCGC | 0.118
100 | AAACTTAT | 0.248

Row | Sequence | PBM E-score
101 | AGGCAAGA | 0.00793
102 | TGGGTCAA | -0.163
103 | CTTTATTA | 0.112
104 | CATCCGCA | 0.0163
105 | CGACGACG | -0.072
106 | ACCGGTTC | -0.0305
107 | CATCTAGC | -0.217
108 | ATGAAGCG | -0.0717
109 | CACGTTCC | 0.0363
110 | CAAACACA | 0.121
111 | AGGTCGCC | -0.19
112 | AGAGTAGA | -0.0237
113 | CGCGACGA | 0.0977
114 | CAAGCTAG | -0.0127
115 | AGATTACG | -0.0185
116 | TTTCCAAA | 0.237
117 | TATAATAA | 0.141
118 | AGACCTTA | 0.128
119 | CCAATGGG | -0.234
120 | TATATAAA | 0.267
121 | ACCTCACC | -0.029
122 | CATTCTCA | 0.222
123 | ACTCATGA | 0.124
124 | GTTGATGA | -0.0166
125 | AGGACGAC | -0.271

Row | Sequence | PBM E-score
126 | CATACGCA | 0.00492
127 | CACGGCCG | 0.104
128 | GATTTTGA | 0.228
129 | AATTTATG | 0.205
130 | GTTCTTCA | 0.0585
131 | GTGTGTGA | 0.142
132 | ATGGCAAC | -0.0144
133 | GAATGGTA | -0.00973
134 | AAATCGTA | 0.181
135 | CACACAGG | 0.166
136 | GCTGCCAA | -0.196
137 | ATATGGCA | -0.0191
138 | CACCCACG | 0.0855
139 | GATGTTGC | 0.00426
140 | ACAGACTC | -0.173
141 | AATCCTCG | -0.062
142 | AGTGTCTC | -0.0319
143 | CCGTTTAA | 0.135
144 | ACCAGTTA | 0.0659
145 | CGCTGTCA | -0.0431
146 | CCCGGATC | -0.0487
147 | TGCACAAA | 0.115
148 | AGCCATAC | -0.0754
149 | CTCTTTTA | 0.0019
150 | AAAGATCC | -0.0171

Row | Sequence | PBM E-score
151 | AGGTTCCG | 0.0466
152 | CAGGGTCG | -0.0799
153 | ATGGTAAA | 0.139
154 | CGGAATAA | 0.0438
155 | AAGATCGT | -0.0522
156 | CTTTTTAC | 0.25
157 | AGTTCTTG | -0.0124
158 | CACTGCAC | -0.14
159 | TACTGGAA | 0.182
160 | ATGGATGC | -0.0947
161 | CAGTACTG | -0.0408
162 | ATTAACCG | 0.111
163 | GACTCTAC | -0.174
164 | AAAATACG | 0.154
165 | CAATTTCA | -0.0398
166 | CGGTCTAG | 0.0867
167 | GGAGGGCA | 0.0377
168 | CAATCGTA | 0.039
169 | CACAGCGC | 0.0031
170 | GTCCTAAC | -0.0583
171 | CGCCGCCG | -0.0563
172 | ATCCAAAG | 0.14
